# Measurements taken from publication PMC4336329 (PLoS ONE, 2015).
# Hit rate of the full screen: of about 310,000 compounds, about 2,200 (0.71%) showed an effect of 50% or more. The effect is printed as a negative number. The list shows a part of the results.
# Biological target: human ether-à-go-go-related gene (hERG) potassium channel (human, UniProt Q12809)
# Assay: primary screen, population patch clamp on CHO cells stably expressing hERG
# human ether-à-go-go-related gene (hERG) potassium channel, sequence (Q12809 whole entry, looked up): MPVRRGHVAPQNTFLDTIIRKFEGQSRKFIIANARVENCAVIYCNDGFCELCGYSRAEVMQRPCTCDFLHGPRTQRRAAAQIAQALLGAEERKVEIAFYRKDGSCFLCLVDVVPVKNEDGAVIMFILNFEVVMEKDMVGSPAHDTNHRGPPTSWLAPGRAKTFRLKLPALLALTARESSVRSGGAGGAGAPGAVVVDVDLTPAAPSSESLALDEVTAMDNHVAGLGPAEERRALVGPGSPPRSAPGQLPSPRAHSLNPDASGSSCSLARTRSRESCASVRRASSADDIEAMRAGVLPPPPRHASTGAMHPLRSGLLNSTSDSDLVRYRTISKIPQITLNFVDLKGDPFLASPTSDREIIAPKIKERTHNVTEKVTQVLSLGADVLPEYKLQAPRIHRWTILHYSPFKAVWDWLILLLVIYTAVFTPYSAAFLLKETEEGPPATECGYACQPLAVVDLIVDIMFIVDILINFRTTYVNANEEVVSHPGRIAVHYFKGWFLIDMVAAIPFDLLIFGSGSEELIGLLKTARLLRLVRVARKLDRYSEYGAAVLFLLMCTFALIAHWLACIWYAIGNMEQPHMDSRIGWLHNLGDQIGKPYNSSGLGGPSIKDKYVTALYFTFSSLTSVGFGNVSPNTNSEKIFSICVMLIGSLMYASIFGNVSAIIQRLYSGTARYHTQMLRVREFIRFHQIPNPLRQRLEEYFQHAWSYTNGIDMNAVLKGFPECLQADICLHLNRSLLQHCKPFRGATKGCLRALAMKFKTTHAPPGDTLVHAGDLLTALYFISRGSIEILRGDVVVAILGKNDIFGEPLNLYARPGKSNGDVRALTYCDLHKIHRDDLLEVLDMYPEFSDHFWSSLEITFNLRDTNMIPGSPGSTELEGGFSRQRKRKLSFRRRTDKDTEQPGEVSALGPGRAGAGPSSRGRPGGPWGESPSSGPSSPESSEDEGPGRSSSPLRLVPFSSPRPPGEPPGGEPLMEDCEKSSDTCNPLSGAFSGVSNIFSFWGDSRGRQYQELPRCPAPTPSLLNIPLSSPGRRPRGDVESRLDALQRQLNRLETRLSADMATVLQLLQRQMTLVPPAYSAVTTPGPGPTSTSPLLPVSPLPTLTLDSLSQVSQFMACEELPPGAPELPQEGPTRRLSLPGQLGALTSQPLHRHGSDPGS
row,SMILES,"hERG current change (%, negative = inhibition) at 1uM"
1,O=C(Nc1ccc(-c2csc(-c3ccccc3)n2)cc1)c1ccccc1,18.8%
2,Cc1cnc(C(=O)Oc2ccc(-c3ccccc3)cc2)cn1,9.15%
3,CC#CCN1c2ccccc2[C@]23C[C@@H](C(=O)OC)N(C(=O)NC(C)(C)C)C2=NC(C(=O)OC)=C(C(=O)OC)[C@H]13,21.5%
4,O=C(NC1CCCCC1)C(c1ccc2ncccc2c1)N(Cc1ccco1)C(=O)c1ccc2c(c1)OCCO2 (stereo not drawn),-6.75%
5,Cc1cccc(CC2CC(=O)N(c3nc4ccccc4s3)C2=O)c1 (stereo not drawn),13.4%
6,COc1ccc(CC(=O)Nc2sc(Cc3ccccc3)c(C)c2C(N)=O)cc1,-5.44%
7,O=C(N/N=C/c1ccc(OC(=O)c2cccc(Br)c2)cc1)c1cccnc1,11.7%
8,O=C(CSc1ccc(-c2ccco2)nn1)NCc1ccc(F)cc1,-0.888%
9,Cc1n[nH]c(C)c1CN(C)C(=O)C1CCC(=O)N(CC2CCCCC2)C1 (stereo not drawn),2.33%
10,CCOC(=O)N1CCC(N(C(=O)Nc2ccccc2)C(C)CC)CC1 (stereo not drawn),10.4%
11,Cc1onc(C(=O)N2CCC(Cc3ccccc3)CC2)c1[N+](=O)[O-],10.9%
12,O=c1oc2cc(Oc3ccc(C(F)(F)F)cc3[N+](=O)[O-])ccc2c2c1CCCC2,7.24%
13,Cn1cccc1/C=N/NC(=O)c1ccc(OC(F)(F)C(F)F)cc1,3.65%
14,CCOc1cccc(C(=O)Nc2nnc(-c3ccco3)s2)c1,1.95%
15,COCCn1c(=NC(=O)CCS(=O)(=O)c2ccccc2)sc2cc(C(=O)OC)ccc21,16.1%
16,O=S(=O)(Nc1ccccn1)c1ccc(Oc2ccccc2)cc1,-27.4%
17,CN(C)S(=O)(=O)c1ccc(C(=O)NCc2ccco2)cc1,12%
18,COc1ccccc1OC(C)C(=O)NNC(=S)NC1CCCC1 (stereo not drawn),9.39%
19,COc1cc(/C=N/N(C)C)cc(Br)c1O.O=P(O)(O)O,4.43%
20,CN(c1ccc(C(=O)NCCSC(C)(C)C)cc1)S(C)(=O)=O,7.29%
21,O=c1oc2ccccc2n1Cc1ccccc1F,13.3%
22,O=C(CC1C(=O)NCCN1Cc1ccccc1C(F)(F)F)NCCc1ccccn1 (stereo not drawn),9.45%

row,SMILES,"hERG current change (%, negative = inhibition) at 1uM"
1,Cc1csc(NC(=O)CCc2c(C)nc3cc(-c4cccc(F)c4)nn3c2C)n1,3.64%
2,CC(=O)Nc1ccc(S(=O)(=O)N(C)CC(=O)N/N=C/c2ccc(C(=O)O)cc2)cc1,14.3%
3,CCOC(=O)C(CC(=O)O)=C(c1ccccc1)c1ccccc1,19.2%
4,CCOc1ccc(N2C(=O)Nc3ccccc3C2(O)C(=O)NCc2ccc(C)cc2)cc1 (stereo not drawn),11.2%
5,CNC(=O)c1c(NC(=O)c2cccc(N3C(=O)CCC3=O)c2)sc2c1CCC2,16.7%
6,CCc1ccc(C2CC(=O)NC(SCC(=O)OC(C)C)=C2C#N)cc1 (stereo not drawn),7.68%
7,CC(=O)c1ccc(N2CCN(C(=O)Nc3cccc(F)c3)CC2)cc1,8.82%
8,O=C(Nc1nc2ccccc2[nH]1)C1CCN(C(=O)c2ccc(F)cc2)CC1,-12.9%
9,CC1CCN(S(=O)(=O)N2CCN(C(=O)c3ccc4c(c3)OCO4)CC2)CC1,2.75%
10,COc1cc(/C=N/NC(=O)CSc2nc3ccccc3n2C)cc(OC)c1OC,4.62%
11,Cc1ccc2c(c1)CNc1ccccc1O2,-11.7%
12,COC(=O)C(O)(NC(=O)NC(C)=O)C(F)(F)F (stereo not drawn),8.26%
13,O=C1CCCN1CCCNc1ncccc1[N+](=O)[O-],13.4%
14,Cc1ccccc1CN1C(=O)c2ccccc2Sc2ccc(C(=O)NCCCN3CCOCC3)cc21,5.5%
15,Cc1ccc(CSc2nnc(-c3ccncc3)n2C)cc1,5.72%
16,O=C(c1ccc(-n2cncn2)c([N+](=O)[O-])c1)N1CCN(S(=O)(=O)c2ccc(Br)cc2)CC1,-33%
17,CCCSC1=C(C#N)C(c2ccccc2C)CC(=O)N1 (stereo not drawn),6.7%
18,Cc1ccc(N2CC(C(=O)Nc3ccc(S(=O)(=O)NCC4CCCO4)cc3)CC2=O)cc1C (stereo not drawn),13.9%
19,O=C(CSc1nnc(-c2ccccc2)o1)N1CCCC1,14.5%
20,CC(=O)[C@H]1CC[C@H]2[C@@H]3CCC4=CC(=O)CC[C@]4(C)[C@H]3[C@H](O)C[C@]12C,2.12%
21,COc1ccc(/C=C/C(=O)O/N=C(\N)c2ccccc2)cc1OC,-3.48%
22,CCN(CC)C(=O)Oc1ccc(Br)cc1C(=O)Nc1ccc(F)c(Cl)c1,7.09%

row,SMILES,"hERG current change (%, negative = inhibition) at 1uM"
1,CN(C)S(=O)(=O)c1cccc(NC(=S)NC23CC4CC(CC(C4)C2)C3)c1,14%
2,CCC(=O)N1CCN(c2nc(-c3ccc(Cl)cc3)cs2)CC1,9.84%
3,CCCCCN(C(=O)CCC(=O)OCC(=O)N(C)C1CCCCC1)c1c(N)n(CCCC)c(=O)[nH]c1=O,6.87%
4,Cc1ccc(N(C(=O)CCC(=O)Nc2nccs2)C(C(=O)NC(C)(C)C)c2ccc(O)cc2)cc1 (stereo not drawn),9.59%
5,Cc1ccc(C(C(=O)NC2CCCCC2)N(C(=O)c2csnn2)C2CC2)cc1 (stereo not drawn),-1.47%
6,O=C(N/N=C/C=C/c1ccco1)c1cccnc1,8.42%
7,Cc1ccc(CS(=O)(=O)CCC(=O)NCc2cccs2)cc1,0.172%
8,CCCCCCCCN=C1NC(=O)CS1,-3.77%
9,CC(C)c1ccc(NC(=O)C(c2ccc3c(c2)OCO3)N2CCN(C(=O)c3ccco3)CC2)cc1 (stereo not drawn),6.41%
10,CCCn1c(SCC(=O)Nc2cccc(S(=O)(=O)N(C)C)c2)nc2ccccc2c1=O,5.64%
11,COCCCNS(=O)(=O)c1ccc(Cl)c(C(F)(F)F)c1,-1.22%
12,O=C(Cc1ccc(Cl)cc1Cl)Nc1ccc(OC(F)F)c(Cl)c1,11.8%
13,COc1ccccc1NS(=O)(=O)c1cccc(C(=O)NN)c1,-7.12%
14,CCCOc1ccc(C(=O)NCCO)cc1,15%
15,O=C(O)C(c1ccccc1)N1C(=O)/C(=C\c2ccc(-c3ccccc3Cl)o2)SC1=S (stereo not drawn),10.3%
16,O=C(Nc1nccs1)C1CCN(S(=O)(=O)c2cccnc2)CC1,5.21%
17,COC(=O)C(O)(c1ccc(NC(=O)c2ccco2)c(OC)c1)C(F)(F)F (stereo not drawn),4.21%
18,O=C(NCCc1csc(-c2cccnc2)n1)c1cccc2ccccc12,7.67%
19,O=C(N/N=C(\c1ccccc1)c1cccnc1)C(O)(c1ccccc1)c1ccccc1,-7.26%
20,Cc1cc(C)c(C#N)c(SCC(=O)OC2CCCCC2)n1,9.28%
21,CC(=O)c1ccc(N2CCN(C(=O)c3ccc4ccccc4n3)CC2)cc1,2.86%
22,COc1ccc(CCNC(=O)c2cc(-c3cccs3)on2)cc1OC,1.31%

row,SMILES,"hERG current change (%, negative = inhibition) at 1uM"
1,C=CCOc1ccc2oc(=O)cc(C)c2c1,4.53%
2,O=C(OCCOc1ccccc1)c1cc(S(=O)(=O)N2CCOCC2)ccc1Cl,-4.2%
3,CC(C)N1C(=O)C2C(c3ccccc3O)NC(C)(C(=O)O)C2C1=O (stereo not drawn),2.56%
4,N#Cc1c(NC(=O)CSc2n[nH]c(N)n2)oc(-c2ccccc2)c1-c1ccccc1,-1.07%
5,O=C1Nc2ccc(Cl)cc2C(=O)C1(F)c1ccccc1 (stereo not drawn),-1.25%
6,Cc1ccccc1CCNC(=O)C1CCCN(c2cnccn2)C1 (stereo not drawn),13.6%
7,O=C(OCCN1C(=O)c2ccccc2C1=O)c1cc(S(=O)(=O)N2CCOCC2)ccc1Cl,10.1%
8,CN(C)N=Nc1ccc(S(=O)(=O)/N=C(\[O-])c2ccccc2)cc1.[K+],13%
9,COc1ccc(/C=C2\CCCC3C2=NN(C(=O)c2scnc2C)C3c2ccc(OC)c(OC)c2)cc1OC (stereo not drawn),17.9%
10,N#Cc1ccccc1NC(=O)CNc1ccc(Cl)c(C(F)(F)F)c1,7.67%
11,Cc1cccc(C)c1NC(=O)CSc1nnc(-c2ccco2)c(-c2ccco2)n1,-13.6%
12,Cc1cc[n+](CC(=O)c2cccs2)cc1.[Br-],12%
13,CC(=O)c1sc(NC(=O)CS(=O)(=O)c2ccccc2)nc1-c1ccccc1,11.4%
14,O=C1N(c2ccccc2)C(c2ccc(Cl)cc2)N2CCCN12 (stereo not drawn),7.99%
15,C=CCNC(=S)Nc1cc(Cl)ccc1OC,13.1%
16,CC(=O)c1c(C)[nH]c(C(=O)OCC(=O)Nc2sc3c(c2C#N)CCCC3)c1C,16.3%
17,CC(C)(C)c1cn(-c2ccccc2)c(=S)[nH]1,16%
18,CC1(C)Cc2c(c(-c3ccccc3)[nH]c(=O)c2C#N)CO1,8.34%
19,O=C(Nc1c(C(=O)N2CCCC2)cnn1-c1ccccc1)c1cccc(F)c1,10.2%
20,CC1CCCCN1C(=O)c1ccccc1NC(=O)c1ccco1 (stereo not drawn),9.72%
21,O=C(CN1C(=O)NC2(CCCc3ccccc32)C1=O)Nc1cccc(S(=O)(=O)N2CCCCC2)c1 (stereo not drawn),19.3%
